The supplement of paper PMC8728848
Some of the results follow.

Experiments:
Assay in all cases: glycan array binding signal (z-score within array); higher = stronger binding
Conditions in all cases: glycan notation: IUPAC condensed, linker removed
Fuc(a1-2)Gal = target: Fuc(a1-2)Gal
Method in brief: (§1)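 The binding signal is a Z-score computed within each array and averaged over linkers. Arrays of the same protein sequence at different concentrations or buffers were also averaged together. Data originate from 3228 arrays in the Consortium for Functional Glycomics database, kept only where the protein sequence was available.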

Fuc(a1-2)Gal(b1-3)GalNAc = target: Fuc(a1-2)Gal(b1-3)GalNAc
Method in brief: as §1

[1] = target: Fuc(a1-2)Gal(b1-3)GalNAc(a1-3)[Fuc(a1-2)]Gal(b1-4)Glc
Method in brief: as §1

[2] = target: Fuc(a1-2)Gal(b1-3)GalNAc(a1-3)[Fuc(a1-2)]Gal(b1-4)GlcNAc
Method in brief: as §1

[3] = target: Fuc(a1-2)Gal(b1-3)GalNAc(b1-3)Gal
Method in brief: as §1

[4] = target: Fuc(a1-2)Gal(b1-3)GalNAc(b1-3)Gal(a1-4)Gal(b1-4)Glc
Method in brief: as §1

[5] = target: Fuc(a1-2)Gal(b1-3)GalNAc(b1-4)[Neu5Ac(a2-3)]Gal(b1-4)Glc
Method in brief: as §1

Fuc(a1-2)Gal(b1-3)GlcNAc = target: Fuc(a1-2)Gal(b1-3)GlcNAc
Method in brief: as §1

[6] = target: Fuc(a1-2)Gal(b1-3)GlcNAc(b1-2)Man(a1-3)[Fuc(a1-2)Gal(b1-3)GlcNAc(b1-2)Man(a1-6)]Man(b1-4)GlcNAc(b1-4)GlcNAc
Method in brief: as §1

[7] = target: Fuc(a1-2)Gal(b1-3)GlcNAc(b1-2)Man(a1-3)[Fuc(a1-2)Gal(b1-3)GlcNAc(b1-2)Man(a1-6)]Man(b1-4)GlcNAc(b1-4)[Fuc(a1-6)]GlcNAc
Method in brief: as §1

[8] = target: Fuc(a1-2)Gal(b1-3)GlcNAc(b1-3)Gal(b1-4)Glc
Method in brief: as §1

[9] = target: Fuc(a1-2)Gal(b1-3)GlcNAc(b1-3)GalNAc
Method in brief: as §1

[10] = target: Fuc(a1-2)Gal(b1-3)GlcNAc(b1-3)[Fuc(a1-2)Gal(b1-3)GlcNAc(b1-6)]GalNAc
Method in brief: as §1

[11] = target: Fuc(a1-2)Gal(b1-3)GlcNAc(b1-3)[Gal(b1-4)GlcNAc(b1-6)]Gal(b1-4)Glc
Method in brief: as §1

[12] = target: Fuc(a1-2)Gal(b1-3)GlcNAc(b1-3)[Neu5Ac(a2-6)Gal(b1-4)GlcNAc(b1-6)]Gal(b1-4)Glc
Method in brief: as §1

[13] = target: Fuc(a1-2)Gal(b1-3)GlcNAc6S
Method in brief: as §1

[14] = target: Fuc(a1-2)Gal(b1-3)[Fuc(a1-4)]GlcNAc
Method in brief: as §1

[15] = target: Fuc(a1-2)Gal(b1-3)[Fuc(a1-4)]GlcNAc(b1-2)Man(a1-3)[Fuc(a1-2)Gal(b1-3)[Fuc(a1-4)]GlcNAc(b1-2)Man(a1-3)]Man(b1-4)GlcNAc(b1-4)GlcNAc
Method in brief: as §1

[16] = target: Fuc(a1-2)Gal(b1-3)[Fuc(a1-4)]GlcNAc(b1-2)Man(a1-3)[Fuc(a1-2)Gal(b1-3)[Fuc(a1-4)]GlcNAc(b1-2)Man(a1-6)]Man(b1-4)GlcNAc(b1-4)[Fuc(a1-6)]GlcNAc(b1-4)[Fuc(a1-6)]GlcNAc
Method in brief: as §1

[17] = target: Fuc(a1-2)Gal(b1-3)[Fuc(a1-4)]GlcNAc(b1-3)[Fuc(a1-3)[Gal(b1-4)]GlcNAc(b1-6)]Gal(b1-4)Glc
Method in brief: as §1

[18] = target: Fuc(a1-2)Gal(b1-3)[Fuc(a1-4)]GlcNAc(b1-3)[Gal(b1-4)GlcNAc(b1-6)]Gal(b1-4)Glc
Method in brief: as §1

[19] = target: Fuc(a1-2)Gal(b1-4)Fuc(a1-3)]GlcNAc(b1-2)Man(a1-3)[Fuc(a1-2)Gal(b1-4)[Fuc(a1-3)]GlcNAc(b1-2)Man(a1-6)]Man(b1-4)GlcNAc(b1-4)GlcNAc
Method in brief: as §1

Fuc(a1-2)Gal(b1-4)Glc = target: Fuc(a1-2)Gal(b1-4)Glc
Method in brief: as §1

Fuc(a1-2)Gal(b1-4)Glc6S = target: Fuc(a1-2)Gal(b1-4)Glc6S
Method in brief: as §1

Fuc(a1-2)Gal(b1-4)GlcNAc = target: Fuc(a1-2)Gal(b1-4)GlcNAc
Method in brief: as §1

[20] = target: Fuc(a1-2)Gal(b1-4)GlcNAc(b1-2)Man
Method in brief: as §1

[21] = target: Fuc(a1-2)Gal(b1-4)GlcNAc(b1-2)Man(a1-3)[Fuc(a1-2)Gal(b1-4)GlcNAc(b1-2)Man(a1-6)]Man(b1-4)GlcNAc(b1-4)GlcNAc
Method in brief: as §1

[22] = target: Fuc(a1-2)Gal(b1-4)GlcNAc(b1-2)Man(a1-3)[Fuc(a1-2)Gal(b1-4)GlcNAc(b1-2)Man(a1-6)]Man(b1-4)GlcNAc(b1-4)[Fuc(a1-6)]GlcNAc
Method in brief: as §1

[23] = target: Fuc(a1-2)Gal(b1-4)GlcNAc(b1-2)[Fuc(a1-2)Gal(b1-4)GlcNAc(b1-4)]Man(a1-3)[Fuc(a1-2)Gal(b1-4)GlcNAc(b1-2)Man(a1-6)]Man(b1-4)GlcNAc(b1-4)GlcNAc
Method in brief: as §1

[24] = target: Fuc(a1-2)Gal(b1-4)GlcNAc(b1-3)Gal(b1-4)GlcNAc
Method in brief: as §1

B1: Sebin2 (Coprinopsis cinerea), A8PE78 (protein)
chain: MTTPFYAYCHNVQDDNTWRLGLVFANRSTADEWWRAISEATSSIPITKSITRVTPQYYTHDIRVWNMYNFFVDGNIKSISDKFRGRLFITLEYDRSGRGVSVFPPLHIVDHVSGNWYYIRSKTAPHLFWFYDETRNAIYASKEKRTRFKVSIRNPSPQTPKDAIMINSDDVVIHIKESLYVGVDSYLGHIIPTRAYRTFKFGELEGGAIAGIEVAENAEERCSSTFDGASLYFVGPDSSSPGEPWELV
glycan array binding signal (z-score) (Fuc(a1-2)Gal): -0.328 | glycan array binding signal (z-score) (Fuc(a1-2)Gal(b1-3)GalNAc): -0.315 | glycan array binding signal (z-score) [1]: 0.019 | glycan array binding signal (z-score) [2]: -0.4 | glycan array binding signal (z-score) [3]: -0.584 | glycan array binding signal (z-score) [4]: 0.1 | glycan array binding signal (z-score) [5]: -0.117 | glycan array binding signal (z-score) (Fuc(a1-2)Gal(b1-3)GlcNAc): -0.146 | glycan array binding signal (z-score) [6]: 0.911 | glycan array binding signal (z-score) [7]: 0.377 | glycan array binding signal (z-score) [8]: -0.04 | glycan array binding signal (z-score) [9]: -0.146 | glycan array binding signal (z-score) [10]: -0.358 | glycan array binding signal (z-score) [11]: -0.116 | glycan array binding signal (z-score) [12]: -0.54 | glycan array binding signal (z-score) [13]: -0.236 | glycan array binding signal (z-score) [14]: -0.281 | glycan array binding signal (z-score) [15]: -0.281 | glycan array binding signal (z-score) [16]: -0.181 | glycan array binding signal (z-score) [17]: -0.567 | glycan array binding signal (z-score) [18]: -0.309 | glycan array binding signal (z-score) [19]: 0.707 | glycan array binding signal (z-score) (Fuc(a1-2)Gal(b1-4)Glc): -0.092 | glycan array binding signal (z-score) (Fuc(a1-2)Gal(b1-4)Glc6S): -0.139 | glycan array binding signal (z-score) (Fuc(a1-2)Gal(b1-4)GlcNAc): -0.015 | glycan array binding signal (z-score) [20]: -0.007 | glycan array binding signal (z-score) [21]: 0.006 | glycan array binding signal (z-score) [22]: 0.03 | glycan array binding signal (z-score) [23]: 0.019 | glycan array binding signal (z-score) [24]: -0.482
